Reference: PubChem BioAssay AID485360 (National Center for Advancing Translational Sciences (NCATS), 2010)
The whole screen tested about 230,000 compounds, of which about 1,500 (0.65%) were called active. This list was built around the results that the source calls inconclusive (neither active nor inactive); the mix of calls is not that of the screen. Calls come from the whole dose curve; as a rule, active = well fitted inhibition curve with a large enough effect; inconclusive = small, poorly fitted or top-dose-only effect; inactive = no such curve, though single readings can be large or run the other way. Where the call is inconclusive, the potency comes from a doubtful curve fit.

Biological target: Lethal(3)malignant brain tumor-like protein 1 (Homo sapiens) (UniProt Q9Y468)
Assay: qHTS Assay for the Inhibitors of L3MBTL1; note: nearly all actives have a fitted effect of over 60% in size
Details: AlphaScreen L3MBTL1–H3K9me1 peptide binding; activity, negative = inhibition: at 57.1 µM (top of the series)
Method in brief: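 L3MBTL1 50 nM + b-AHA-H3(1-15)K9me1 75 nM, 30 min RT; compound added, 30 min RT; streptavidin donor/Ni-chelate acceptor beads 10 ug/mL each final, 30 min RT dark; AlphaScreen read.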
% is set by controls: 0 for no effect and ±100 for the full control effect; potency is the fitted concentration of half-maximal effect; tags give direction and shape of the fitted curve.

Sequence of UniProt Q9Y468 (Q9Y468 whole entry, looked up): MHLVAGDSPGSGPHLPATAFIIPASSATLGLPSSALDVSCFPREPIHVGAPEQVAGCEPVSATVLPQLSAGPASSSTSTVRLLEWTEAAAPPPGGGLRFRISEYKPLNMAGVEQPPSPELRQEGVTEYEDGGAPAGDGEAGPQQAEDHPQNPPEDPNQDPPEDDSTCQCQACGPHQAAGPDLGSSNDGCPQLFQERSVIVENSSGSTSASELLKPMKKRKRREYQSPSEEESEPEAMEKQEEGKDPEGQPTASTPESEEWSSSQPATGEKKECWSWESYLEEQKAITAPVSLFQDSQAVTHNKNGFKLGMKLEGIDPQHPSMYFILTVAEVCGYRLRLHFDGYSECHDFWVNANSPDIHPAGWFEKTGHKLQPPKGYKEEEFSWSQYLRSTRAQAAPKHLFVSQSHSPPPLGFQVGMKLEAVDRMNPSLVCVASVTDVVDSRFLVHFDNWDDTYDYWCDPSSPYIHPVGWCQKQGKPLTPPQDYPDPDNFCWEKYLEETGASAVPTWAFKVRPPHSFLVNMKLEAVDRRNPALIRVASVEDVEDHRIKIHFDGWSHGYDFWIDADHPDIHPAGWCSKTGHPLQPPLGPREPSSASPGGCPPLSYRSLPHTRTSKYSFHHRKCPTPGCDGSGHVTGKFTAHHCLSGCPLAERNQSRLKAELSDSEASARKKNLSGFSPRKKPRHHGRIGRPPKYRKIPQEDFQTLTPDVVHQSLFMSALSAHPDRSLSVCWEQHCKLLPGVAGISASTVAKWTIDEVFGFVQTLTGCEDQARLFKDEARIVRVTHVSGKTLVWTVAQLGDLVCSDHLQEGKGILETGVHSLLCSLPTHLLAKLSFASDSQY

Compound | Potency | activity, negative = inhibition
COc1cc(OC)c2c(-c3ccccc3)cc(=O)oc2c1C(CCN1CCOCC1)c1ccc(N(C)C)cc1 (configuration not stated) | inconclusive: 35.5 µM [inhibitor, single point] | –
CCc1ccc(NC(=O)C(C)OC(=O)C2CCN(c3ccc(C(F)(F)F)cn3)CC2)cc1 (configuration not stated) | – | inactive: 6.12%
CCCCNCC(O)(c1ccc(Cl)cc1)c1ccc(Cl)cc1 | – | inactive: 35.9%
Cc1cc(=O)oc2c(CN3CC(C)OC(C)C3)c(O)c(Cl)cc12 (configuration not stated) | inconclusive: 39.8 µM [inhibitor, single point] | –
CCCn1nnnc1NCc1ccccc1OCC | inconclusive: 6.31 µM [inhibitor, single point] | –
Cc1cccc(NC(=O)C(=O)NCC2CCCN2S(=O)(=O)c2ccccc2)c1 (configuration not stated) | – | inactive: -4.39%
CC(C)N1C(=S)N(Cc2ccco2)C(=O)C1CC(=O)Nc1ccccc1 (configuration not stated) | – | inactive: 3.68%
COc1ccc(-n2cnnc2SCC(=O)NC2CCCCC2)cc1 | – | inactive: 6.91%
O=C(/C=C/c1ccc(-c2ccccc2[N+](=O)[O-])o1)c1ccccc1 | inconclusive: 14.1 µM [inhibitor, partial curve] | –
CCn1ccnc1CN(C)Cc1cn[nH]c1-c1ccc(F)cc1F | inconclusive: 35.5 µM [inhibitor, single point] | –
Cc1cccc(C(=O)Nc2cc(=O)n(C)c(=O)n2C)c1 | inconclusive: 39.8 µM [inhibitor, single point] | –
CCc1ccc(NC(=O)c2cnn3c(C(F)F)cc(C)nc23)cc1 | – | inactive: -10.3%
CCC1(C(=O)OC)NC(c2ccco2)C2C(=O)N(c3ccc(F)cc3)C(=O)C21 (configuration not stated) | – | inactive: -5.85%
COc1cc(C(=S)N2CCN(c3ccccc3Cl)CC2)cc(O)c1O | inconclusive: 25.1 µM [inhibitor, partial curve, poor fit] | –
Nc1nonc1C(=O)N/N=C/c1cc(Br)ccc1O | active: 1.41 µM | –
c1ccc(-c2nc(-c3ccncc3)n[nH]2)nc1 | active: 3.16 µM | –
Cc1[nH]c2ccccc2c1/C=N/Nc1ccccn1 | inconclusive: 12.6 µM [inhibitor, partial curve] | –
COc1ccc(C/C(C)=N/NC(=O)c2cccnc2)cc1 | – | inactive: 2.77%
CC(=O)Nc1ccc(S(=O)(=O)Oc2ccc(C(=S)N3CCC(O)CC3)cc2)cc1 | – | inactive: -4.02%
Cc1ccc(-c2cc(C(=O)Nc3cc(C)on3)c3ccccc3n2)cc1 | inconclusive: 0.794 µM [inhibitor, single point] | –
Cc1ccc(C(=O)N(C)CCOc2ccccc2)cc1S(=O)(=O)N1CCCCC1 | – | inactive: 4.85%
CCOc1ccc(C(=O)N/N=C/c2cccc3cccnc23)cc1 | inconclusive: 25.1 µM [inhibitor, single point] | –
